Publication PMC4336329 (PLoS ONE, 2015)
Among all 310,000 compounds or so, about 2,200 (0.71%) showed an effect of 50% or more. Effects have a minus sign here. The list shows a part of the results.

What follows are molecules tested against human ether-à-go-go-related gene (hERG) potassium channel (human, UniProt Q12809) (assay: primary screen, population patch clamp on CHO cells stably expressing hERG).
human ether-à-go-go-related gene (hERG) potassium channel, sequence (Q12809 whole entry, looked up): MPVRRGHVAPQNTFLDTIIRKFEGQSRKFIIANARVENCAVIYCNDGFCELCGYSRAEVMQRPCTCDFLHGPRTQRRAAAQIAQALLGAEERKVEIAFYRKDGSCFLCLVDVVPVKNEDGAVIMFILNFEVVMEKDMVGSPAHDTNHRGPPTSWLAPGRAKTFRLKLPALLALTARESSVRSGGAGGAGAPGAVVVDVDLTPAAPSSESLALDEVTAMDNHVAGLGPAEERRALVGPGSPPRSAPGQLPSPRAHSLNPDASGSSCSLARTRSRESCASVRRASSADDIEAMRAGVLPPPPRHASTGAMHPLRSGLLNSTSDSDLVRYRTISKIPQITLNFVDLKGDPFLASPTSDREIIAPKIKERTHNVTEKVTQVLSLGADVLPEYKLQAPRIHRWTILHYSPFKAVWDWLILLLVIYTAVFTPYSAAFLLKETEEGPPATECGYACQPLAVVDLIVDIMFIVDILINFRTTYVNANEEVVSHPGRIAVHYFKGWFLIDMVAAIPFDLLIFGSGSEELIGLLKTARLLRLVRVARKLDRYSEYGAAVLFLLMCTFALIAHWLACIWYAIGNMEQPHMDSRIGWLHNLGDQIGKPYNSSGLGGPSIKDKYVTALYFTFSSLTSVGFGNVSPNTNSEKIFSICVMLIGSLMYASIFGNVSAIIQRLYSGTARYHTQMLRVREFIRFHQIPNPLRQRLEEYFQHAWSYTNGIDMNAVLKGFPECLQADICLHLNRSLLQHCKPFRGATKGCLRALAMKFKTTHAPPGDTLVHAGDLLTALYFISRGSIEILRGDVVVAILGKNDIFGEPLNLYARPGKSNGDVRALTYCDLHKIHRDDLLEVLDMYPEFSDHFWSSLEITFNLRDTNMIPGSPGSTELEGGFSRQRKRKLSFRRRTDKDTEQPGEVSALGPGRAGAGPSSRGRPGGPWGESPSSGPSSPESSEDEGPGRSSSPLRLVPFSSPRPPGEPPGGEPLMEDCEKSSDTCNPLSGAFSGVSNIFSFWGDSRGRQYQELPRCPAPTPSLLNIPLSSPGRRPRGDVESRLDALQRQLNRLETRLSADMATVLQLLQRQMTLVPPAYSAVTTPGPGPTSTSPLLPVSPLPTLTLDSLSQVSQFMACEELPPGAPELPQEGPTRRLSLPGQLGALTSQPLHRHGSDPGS

SMILES | hERG current change (%, negative = inhibition) at 1uM
O=C(NCn1ccc(=O)[nH]c1=S)c1ccccc1 | 13.3%
Cc1ccc(S(=O)(=O)N(C)CC(=O)NCCCn2ccnc2)cc1 | 22.1%
CN(Cc1ccccc1)S(=O)(=O)c1ccc(Cl)c(C(=O)NCCc2ccccn2)c1 | -12.4%
O=C(CSc1ccccc1)Nc1ccc(N2CCOCC2)cc1 | 10.6%
COC(=O)c1cc(S(=O)(=O)NCC2CCN(CCc3cccs3)CC2)cn1C | -6.07%
O=C(CN1C(=O)NC2(CCCCC2)C1=O)Nc1cccc2ncccc12 | 8.01%
COc1ccccc1N1CCN(C(=O)CSc2nnc(NC(=O)c3ccco3)s2)CC1 | 14.1%
Cc1ccc2nc(SCC(=O)Nc3c(C)n(C)n(-c4ccccc4)c3=O)[nH]c2c1 | 4.89%
COCC(=O)Nc1nnc(SCC(=O)N2CCCCC2)s1 | 17.4%
CCN1C(=O)NC(=O)/C(=C\c2ccc(N3CCOCC3)cc2OC)C1=O | 12.2%
Cc1ccc(C(=O)c2ccc(N3CCN(C)CC3)c([N+](=O)[O-])c2)cc1 | -4.68%
CCn1c(SCC(=O)NC2(C#N)CCCCC2)nc2ccccc2c1=O | 7.2%
O=C(CCCOc1cccc(Br)c1)NCCOc1ccccc1 | 5.62%
O=C(NC(=O)N1CCCCC1)c1ccc(Cl)cc1 | 16.9%
COc1ccc2oc(C(=O)N3CCN(C(=O)c4ccco4)CC3)c(C)c2c1 | 4.58%
CC(=O)NC(c1ccc(C)cc1)c1cc([N+](=O)[O-])c2cccnc2c1O (stereo not drawn) | 6.54%
Cc1ccc(NC(=O)CN(C)C(=O)c2cc(C)on2)cc1 | 4.64%
N#Cc1nc(-c2cccc(Cl)c2)oc1N1CCC(C(N)=O)CC1 | 7.15%
C=CCN1CCN(C(CC(C)C)c2nnnn2CCOC)CC1.Cl (stereo not drawn) | 10.8%
COCCn1ccc(O)c(Cc2ccc(Cl)cc2)c1=O | 3.77%
Cc1cc(/C=C2\SC(=S)NC2=O)c(C)n1-c1ccccc1 | 12.5%
CCOc1cccc(/C=N/NC(=O)CC2C(=O)NN=C2C)c1O (stereo not drawn) | 7.16%
CCOC(=O)c1nc(Nc2ccc(C(=O)O)cc2)c2ccccc2n1.Cl | 11.2%

SMILES | hERG current change (%, negative = inhibition) at 1uM
CCOC(=O)N1CCC(NC(=O)CCC(=O)N2CC(C)Oc3ccccc32)CC1 (stereo not drawn) | 15.4%
COc1ccc(OC)c(C(=O)CSc2nnc(-c3cccs3)n2C)c1 | 16.3%
CN1CCN(CCCn2cnc3c(=O)oc4ccccc4c32)CC1 | 10.5%
Cc1cc(C(=O)COC(=O)c2ccc(N)c([N+](=O)[O-])c2)c(C)n1-c1ccc2c(c1)OCO2 | 10.6%
COc1ccc(CSc2nnc(C)n2N)cc1Br | 10.5%
CCC(C)n1c(-c2cccs2)nc2nc3ccccc3nc21 (stereo not drawn) | 4.84%
Cc1ccccc1C(=O)NNC(=O)c1ccncc1 | 11.3%
CC(C)c1ccc(CNn2cnnc2)cc1 | 8.36%
Cc1ccc(-c2csc(/C(C#N)=C(\O)CN3CCN(C(=O)c4ccco4)CC3)n2)cc1 | 5.32%
COc1ccccc1-c1nnc(SC2CCc3ccccc3NC2=O)s1 (stereo not drawn) | 7.16%
Cc1ccc(NC(=S)N2CCN(c3ccccc3F)CC2)c(C)c1 | 10.7%
Cc1c(N=Nc2c(O)n(Cc3ccccc3)c(=O)[nH]c2=O)c(=O)n(-c2ccccc2)n1C | 2.16%
O=C(NCC(c1ccco1)N1CCc2ccccc21)c1ccccc1Cl (stereo not drawn) | -25.9%
Cc1ccc(C)c(OCC(=O)OCC(=O)Nc2c(C)nn(-c3ccccc3)c2C)c1 | 7.06%
COc1ccc(C2C=C(c3ccccc3)Nc3ncnn32)cc1 (stereo not drawn) | 2.73%
COc1ccc(NC(=O)Nc2cccc([N+](=O)[O-])c2)cc1Cl | -0.718%
O=C(NCC1CCCO1)c1ccc2c(c1)N(Cc1ccccc1)C(=O)CS2 (stereo not drawn) | 9.73%
Cc1ccc(OC(F)F)c(NC(=O)Nc2cccc(C(F)(F)F)c2)c1 | -6.24%
Cn1cc(CCNC(=O)CC2C(=O)NCCN2Cc2cccc(Oc3ccccc3)c2)cn1 (stereo not drawn) | 9.15%
COc1cccc(C(=O)N(Cc2ccc3c(c2)OCO3)Cc2nc3ccccc3c(=O)[nH]2)c1 | 7.79%
COc1ccc(C)cc1NC(=O)c1ccc(NC(=O)CC2SC(N3CCCC3)=NC2=O)cc1 (stereo not drawn) | 12.5%
CCOc1ccc2[nH]c(C)c(CN(C)C)c(=O)c2c1 | 16.9%
